The campaign covered roughly 150,000 compounds. About 540 (0.36%) showed an effect of 50% or more. Some of the results follow.
Test system: Plasmodium falciparum
Test: Primary screen in NF54 nanoGlo assay, in single point, at 2uM, 72h; a lower Z score goes with more inhibition
Type: functional, Erythrocyte
Conditions: timepoint 72 hour

| Structure (SMILES) | % Inhibition | Z score |
| --- | --- | --- |
| C=CCn1c(C(C)CC)nnc1N1CCC(CN(CC)CC(F)(F)F)C1 (configuration not stated) | 1% | -0.13 |
| CC(C)c1c(C(=O)NCCCN2CCOCC2)cnn1-c1nccc(-c2ccco2)n1 | 6% | -0.81 |
| CCOc1ccc(NC(=O)Cn2cc(S(=O)(=O)c3ccc(C)c(C)c3)c(=O)c3ccc(C)nc32)cc1 | -13% | 1.33 |
| CCN(C(=O)COC(=O)c1c(C)nc2ccccc2c1C)c1ccc(F)cc1 | -13% | 1.28 |
| CCc1ncnc(NCCc2ncn(C)c2Br)c1F | -11% | 2.1 |
| Cc1nnc(CCC(=O)N2CC(F)(F)OC(F)(F)C2)o1 | 16% | -1.85 |
| COCc1ccc(CN[C@@H](C)c2ccc(N3CCCNC3=O)cc2)o1 | 0% | -0.05 |
| COC(=O)c1ccn(CC(=O)Nc2ccnn2C2CCCCC2)n1 | -8% | 1.17 |
| Cc1cncc(S(=O)(=O)NCCCN2CCCO[C@@H](C)C2)c1 | -1% | 0.07 |
| c1ccc(C2=NO[C@@H](CN3CCN(c4ncccn4)CC3)C2)cc1 | -11% | 1.91 |
| Cc1ccccc1CC(=O)N1CC(Cc2nncn2C2CCCC2)C1 | -11% | 1.55 |
| C[C@H](NC(=O)c1cc(Cl)cn1C)c1nncn1C | -6% | 1.09 |
| CCN(Cc1c(F)cccc1F)[C@H]1CCNC1=O | -10% | 1.34 |
| COc1ccc(OC)c(NC(=O)N2CCCn3nc(-c4cccn4C)cc32)c1 | 12% | -1.57 |
| COc1ccc(OCc2cc(C(=O)NCC3CCOCC3)n[nH]2)c(Cl)c1 | 13% | -1.71 |
| CN1CC[C@@H]2CN(Cc3ccc(-c4ccccc4C#N)o3)C[C@@H]21 | -3% | 0.43 |
| O=C(Nc1cccc2c1OCCN2C(=O)C1CCOCC1)C1CCOCC1 | -9% | 0.76 |
| CN1CC[C@H](N(C)C(=O)Cc2ccccc2O)C1=O | -6% | 0.76 |
| Cn1cc(N2CCN(C(=O)[C@H]3CCCN(C(=O)c4ccc(F)cc4)C3)CC2)cn1 | 0% | -0.02 |
| Cc1ccc(NC(=O)CCN(C)CCn2ccnc2C)cc1Cl | -2% | 0.33 |
| CC(C)[C@H](Cn1ccnn1)NC(=O)c1ccc(Cl)c(Cl)c1 | -4% | 0.75 |
| CC1CN(C)c2ccccc2CN1C(=O)C(=O)Nc1ccc(S(=O)(=O)C(C)C#N)cc1 (configuration not stated) | -18% | 1.69 |

| Structure (SMILES) | % Inhibition | Z score |
| --- | --- | --- |
| O[C@H]1CN(Cc2nc3c(s2)CCCC3)C[C@@H]1F | -16% | 1.61 |
| O=S(=O)(Cc1ccon1)N1CCN(c2ncc(Cl)cc2F)CC1 | 1% | -0.11 |
| Cn1c(C(=O)O)ccc1-c1ccccc1Cl | -7% | 1.1 |
| N[C@@](C(=O)O)(c1cccc(C(F)(F)F)c1)C(F)(F)F | -14% | 1.86 |
| Cc1n[nH]c(C)c1S(=O)(=O)N1CC[C@@]2(CCCN(CC3CCC3)C2=O)C1 | -10% | 1.3 |
| Cc1nnc2ccc(N3CCCN(c4ccc(C#N)cn4)CC3)nn12 | 4% | -0.43 |
| COC(=O)[C@H]1CCN(C(=O)NCc2ccncc2)C1 | 0% | 0.01 |
| CC(C)n1nccc1C(=O)N(CCC#N)CC1CC1 | 2% | -0.3 |
| Cc1csc(N(C)C(=O)c2cnc3n2CCCC3)n1 | -15% | 2.94 |
| O[C@H]1CC[C@H](NCc2cccc(F)c2)CC1 | 0% | 0.02 |
| CC(C)(C)OC(=O)NCc1ccccc1CCC(=O)O | -5% | 0.53 |
| O=C(NCC[C@H]1CCCN1)c1ccc(-c2nccc3ccccc23)cc1 | -3% | 0.41 |
| COc1cccc(-c2n[nH]c(CC(C)C)c2NC(=O)Cc2cccs2)c1 | 15% | -2.17 |
| Cc1cccc(CC(=O)N2C[C@@H]3C[C@H](NC(=O)c4cccs4)[C@H]2C3)c1 | 28% | -3.2 |
| CC(C)c1ocnc1C(=O)NC1(C(F)(F)F)CCCCC1 | -4% | 0.49 |
| Cc1ccc(C(=O)c2ccccc2)c(NC(=O)CNS(=O)(=O)c2ccccc2C)c1 | -2% | 0.39 |
| Cc1ccc(Cc2noc(CCc3ccc(C)s3)n2)cn1 | -1% | 0.16 |
| CCC(C#CCN1CCOCC1)(CC)OCCC#N | -4% | 0.54 |
| CNC(=O)C1=C(Nc2ccccc2OC)c2ccccc2S1(=O)=O | -7% | 0.66 |
| COc1cccc([C@@H](C)Nc2cc(C)nc3ccnn23)c1 | -3% | 0.56 |
| O=C(c1cc2occc2[nH]1)N1CCc2nc[nH]c2C1 | 2% | -0.34 |
| Cc1cccc(CN2CC[C@H](CO)[C@H](NC(=O)c3cccnc3)C2)c1 | -1% | 0.17 |

| Structure (SMILES) | % Inhibition | Z score |
| --- | --- | --- |
| Cc1nc(-c2cnc(CN3CCCC3)s2)n([C@H]2CCS(=O)(=O)C2)n1 | -11% | 2.13 |
| O=C([C@@H]1CCCO1)N1CCN(c2cc(Nc3ccccn3)ncn2)CC1 | -3% | 0.58 |
| CCc1nocc1CNc1cnc2[nH]ncc2c1 | -5% | 0.55 |
| Cc1ccc(CN(CC(=O)NCCC#N)C(C)C)o1 | -1% | 0.18 |
| Cc1[nH]nc(CCC(=O)N2CC[C@@](O)(C3CCOCC3)[C@H](C)C2)c1C | -3% | 0.42 |
| Cc1cccc(COC(=O)Nc2ccc(NC(=O)c3ccccc3Cl)cc2)c1 | -13% | 1.76 |
| C#CC[C@H](C)OC(=O)c1ccncc1Cl | -7% | 1.05 |
| CC(C)n1nccc1C(=O)N[C@@H](C)Cc1cccnc1 | 4% | -0.77 |
| CC[C@H](C)C(=O)Nc1nc(C(C)=O)cs1 | -2% | 0.23 |
| Cn1c(N2CCC(C(=O)Nc3ccccc3F)CC2)cc(=O)n(C)c1=O | -6% | 0.93 |
| CCOC(=O)c1c(S(=O)(=O)NCC(=O)Nc2ccc(Cl)cc2C)c(C)n(CC)c1C | 0% | 0.04 |
| CC(C)S(=O)(=O)N1Cc2cncnc2C1 | -7% | 1.27 |
| CN(C)c1ccc(Cn2c(=O)[nH]c3ccccc3c2=O)cn1 | 7% | -0.8 |
| COCCN(CC(=O)N1N=C(c2ccc(OC)cc2)C[C@H]1c1ccc(OC)cc1)C(=O)C1CCC1 | -23% | 3.74 |
| CCc1ccccc1NC(=O)Cn1nc2ccc(C(=O)Nc3ccc(OC)cc3)cn2c1=O | -34% | 2.95 |
| CC(C)[C@H](CNC(=O)NCc1cc(Cl)c2c(c1)OCCO2)c1ccnn1C | -10% | 1.22 |
| Cc1cccc2nc(C(=O)N3CC[C@@]4(CCCN(CCO)C4=O)C3)c(F)n12 | -4% | 0.7 |
| CC1OCCC1NCC#Cc1ccc(C(F)(F)F)cc1 (configuration not stated) | -8% | 1.24 |
| COCCCN(Cc1csc(COc2ccccc2C(C)C)n1)C(=O)Cc1ccccc1 | -2% | 0.34 |
| CC(C)(C)NC(=O)CNC(=O)c1ccc2c(c1)COC2 | 6% | -0.83 |
| COc1ccc(NCc2cc(=O)n3nc(NCc4ccc(C)cc4)nc3[nH]2)cc1 | -4% | 0.65 |
| CCc1nc(C)c(C(=O)Nc2cnn(C(C)C)c2)o1 | -11% | 1.01 |

| Structure (SMILES) | % Inhibition | Z score |
| --- | --- | --- |
| CCc1n[nH]c(C(=O)N2CCC3(CC2)[C@H](O)C[C@@H]3OC)c1C | 6% | -0.86 |
| CC(=O)N1CCN(C[C@@H]2OC[C@H](NC(=O)c3cccs3)[C@H]2O)CC1 | -4% | 0.72 |
| Cc1cc(CNc2cc3c(cc2C)OCO3)n[nH]1 | -2% | 0.37 |
| CCc1nnsc1C(=O)NCc1ccc(N2CCCC2=O)cc1 | -9% | 1.27 |
| CN(C)S(=O)(=O)CC(=O)NC1(c2cccc(Cl)c2)CCCC1 | -9% | 1.29 |
| Fc1cncc(NCc2cncs2)c1 | -8% | 1.09 |
| COCCN(C[C@H]1CCCO1)C(=O)c1cc(C(C)C)cc(C(C)C)c1O | 7% | -1.26 |
| CCc1cn[nH]c1[C@H]1CCCN(C(=O)c2nnc3nc(C)ccn23)C1 | -7% | 1.1 |
| Cn1c(=O)c2nc(N3CCOCC3)n(CC(=O)c3ccccc3)c2n(C)c1=O | 33% | -3.72 |
| COc1cccc(NC(=O)N2CCC(N3CCC(CC4CC4)(C(N)=O)CC3)CC2)c1 | 7% | -0.85 |
| COc1cccc(C(=O)Nn2c(C)nnc2-n2nc(C)cc2C)c1 | -27% | 3.21 |
| Cc1ccc(Nc2nc3ccccc3nc2[C@@H](C#N)S(=O)(=O)c2ccc(Cl)cc2)cc1C | 0% | 0.01 |
| CCOC(=O)N1CCN(c2nc(Nc3ccc(OC)cc3)c3cn[nH]c3n2)CC1 | -32% | 4.11 |
| CCc1nnc2n1CCN(Cc1cc(-c3ccccc3)no1)C2 | -12% | 2.3 |
| c1coc(-c2noc(CN3CCn4ccnc4C3)n2)c1 | -15% | 1.76 |
| O=c1cc(C(F)(F)F)[nH]c2nc(-c3cccnc3)nn12 | 9% | -1.19 |
| C#CCCC1(CCC(=O)N2CC(OC(F)F)C2)N=N1 | -5% | 0.64 |
| Cc1nccc(C(=O)N(Cc2ccccc2)CC(F)F)n1 | 6% | -0.94 |
| O=C(Cc1ccoc1)N[C@H](CO)CN1CCCCC1 | -8% | 1.23 |
| O=C1CC[C@]2(C(=O)NCc3ccc(Cl)cc3)CCC=C2N1C1CCCC1 | -8% | 0.99 |
